# Measured values reported in PMC4336329 (PLoS ONE, 2015).
# The whole screen tested about 310,000 compounds, of which about 14,000 (4.5%) showed an effect of 50% or more. Effects have a minus sign here. Some of the results follow.
# Target: human ether-à-go-go-related gene (hERG) potassium channel (human, UniProt Q12809)
# Test: primary screen, population patch clamp on CHO cells stably expressing hERG
# 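Note: peak tail current of the secondary pulse compared with the same well before compound.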
# human ether-à-go-go-related gene (hERG) potassium channel, sequence (Q12809 whole entry, looked up): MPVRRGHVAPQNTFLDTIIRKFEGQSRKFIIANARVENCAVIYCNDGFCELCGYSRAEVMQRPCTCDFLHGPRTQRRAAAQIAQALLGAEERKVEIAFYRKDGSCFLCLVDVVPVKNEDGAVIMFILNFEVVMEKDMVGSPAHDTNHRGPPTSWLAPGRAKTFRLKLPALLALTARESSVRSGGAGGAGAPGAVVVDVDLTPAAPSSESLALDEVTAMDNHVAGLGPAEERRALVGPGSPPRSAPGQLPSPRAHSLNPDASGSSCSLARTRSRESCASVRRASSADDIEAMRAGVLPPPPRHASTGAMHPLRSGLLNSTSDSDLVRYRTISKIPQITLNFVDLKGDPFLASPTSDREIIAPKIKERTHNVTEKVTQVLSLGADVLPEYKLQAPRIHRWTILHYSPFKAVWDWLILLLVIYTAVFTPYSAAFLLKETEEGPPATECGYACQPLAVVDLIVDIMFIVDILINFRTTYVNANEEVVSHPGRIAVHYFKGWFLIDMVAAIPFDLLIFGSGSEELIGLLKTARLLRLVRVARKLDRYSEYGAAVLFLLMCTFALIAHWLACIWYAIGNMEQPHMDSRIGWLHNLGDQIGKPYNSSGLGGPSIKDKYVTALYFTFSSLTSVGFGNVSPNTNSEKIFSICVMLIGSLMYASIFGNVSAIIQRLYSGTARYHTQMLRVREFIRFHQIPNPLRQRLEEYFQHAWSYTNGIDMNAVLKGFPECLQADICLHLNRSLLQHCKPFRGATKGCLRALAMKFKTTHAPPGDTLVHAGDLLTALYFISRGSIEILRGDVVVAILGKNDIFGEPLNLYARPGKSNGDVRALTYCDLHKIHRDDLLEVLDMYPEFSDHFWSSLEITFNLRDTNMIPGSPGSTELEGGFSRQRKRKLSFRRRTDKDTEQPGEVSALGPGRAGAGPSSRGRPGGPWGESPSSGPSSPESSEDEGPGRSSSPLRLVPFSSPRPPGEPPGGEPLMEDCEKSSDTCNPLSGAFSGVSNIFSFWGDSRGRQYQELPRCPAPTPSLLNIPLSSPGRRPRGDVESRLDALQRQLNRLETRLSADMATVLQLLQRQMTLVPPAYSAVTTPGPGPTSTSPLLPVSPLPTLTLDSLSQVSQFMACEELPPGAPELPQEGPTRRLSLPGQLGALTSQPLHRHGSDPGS
row,SMILES,"hERG current change (%, negative = inhibition) at 10uM [%]"
1,Cc1cc(C(=O)N2CCCC(C(=O)c3cccc4ccccc34)C2)nc(C)n1 (stereo not shown),-2.09
2,Cc1ccc(SCCC(=O)N(C)C)cc1,2.14
3,O=C(NC1CCCCC1)C(c1ccco1)N(CCc1ccccc1)C(=O)C(F)(F)F (stereo not shown),-0.752
4,CCc1nnc(NC(=O)c2cccc(OC)c2)s1,5.07
5,O=C(Cc1ccccc1)Nc1cccc(-c2nnc(-c3ccco3)o2)c1,-13.8
6,CCCc1noc2c1/C(=N\O)CC(CC(C)SCC)C2 (stereo not shown),-11.1
7,CCCn1c(=N)n(CC(O)COc2ccc(C)cc2)c2ccccc21.Cl (stereo not shown),-89
8,Cc1onc(-c2ccccc2)c1C(=O)OCC(=O)N(C)c1c(N)n(Cc2ccccc2)c(=O)[nH]c1=O,3.42
9,COc1cccc(OCC(Cn2c(C)nc3ccccc32)OC(C)=O)c1 (stereo not shown),-12.8
10,CCOC(=O)C1CCN(C(=O)CCCNC(=O)Cn2cnc3sc(C)c(C)c3c2=O)CC1,-0.596
11,COc1ccc(C(=O)/C=C/c2ccc(OC(=O)c3cc(OC)c(OC)c(OC)c3)cc2)cc1,-2.04
12,O=C(C1CCCN(CCCc2ccccc2)C1)N1CCCCCC1.O=C(O)C(=O)O (stereo not shown),-46.2
13,COC(=O)c1ccc(C(c2c(C)n(C)n(-c3ccccc3)c2=O)c2c(C)n(C)n(-c3ccccc3)c2=O)cc1,3.98
14,CSc1ccccc1NC(=O)CN(C)Cc1cccc(Cl)c1.O=C(O)C(=O)O,6.55
15,COc1ccc(C(=O)/C(C)=N/O)cc1OC,-0.545
16,O=C(NC(=S)Nc1ccccn1)c1ccco1,2.7
17,COc1cccc(NC(=O)CN2CCN(CC(=O)Nc3ccc(F)cc3)CC2)c1,-80.3
18,O=C(COC(=O)CSc1ccc(F)cc1)NCc1ccco1,5.82
19,Cc1ccc(S(=O)(=O)c2c(N)n(NC(=O)C3CC3)c3nc4ccccc4nc23)cc1,-4.33
20,COc1ccc(S(=O)(=O)NCCC(=O)NCc2ccccc2)cc1,-13.5
21,CCOc1cc2c(cc1OCC)C(C(=O)O)C(c1ccc(OC)c(O)c1)N(C)C2=O (stereo not shown),14.9
22,O=C(NC1CCN(C(=O)N2CCOCC2)CC1)c1ccccc1,-9.34

row,SMILES,"hERG current change (%, negative = inhibition) at 10uM [%]"
1,COc1cccc(NC(=O)CCC2CCN(C(=O)Cc3cccc(F)c3)CC2)c1,-13.7
2,CCCN(C(=S)Nc1ccccc1)C1CCS(=O)(=O)C1 (stereo not shown),19.9
3,COC(=O)C1=C(N)Oc2c(oc(CO)cc2=O)C1c1c(F)cccc1Cl (stereo not shown),-4.76
4,COc1ccc(C(=O)NCC(=O)OCC(=O)N2N=C(c3ccc(Cl)cc3)CC2c2ccco2)cc1OC (stereo not shown),-5.57
5,Cc1c(C)n(C(=O)CN2CCC(C)CC2)c2ccccc12,-14.5
6,CCOC(=O)CC(=O)Nc1cc(Cl)ccc1O,1.77
7,CC(C)c1nnc(NC(=O)COc2ccc3c(c2)OCO3)s1,22.4
8,COC(=O)C1=C(C)N(C)C(=O)NC1c1c(OC)ccc2ccccc12 (stereo not shown),10.6
9,CN(c1ccccc1)S(=O)(=O)c1ccc2[nH]c(=O)oc2c1,23.8
10,CC(=O)NCCc1nc2cc(NC(=O)Nc3ccccc3)ccc2n1C,-53.8
11,Cc1cc(C(=O)NC2CCCc3ccccc32)c(C)o1 (stereo not shown),-7.47
12,Cc1cc(C)c(OCCN2C(=O)NC(C)(C)C2=O)c(Cl)c1,14.6
13,O=C(c1cc2ccccc2oc1=O)N(Cc1cccs1)C1CCS(=O)(=O)C1 (stereo not shown),-5.2
14,CCN(Cc1ccncc1)C(=O)CSc1ccc2ccccc2c1,-8.04
15,CCCCCC(=O)NNC(=S)NC(=O)c1ccc([N+](=O)[O-])cc1,-4.9
16,CCCC(=O)NNC(=O)c1ccoc1C,-5.96
17,COc1cccc(-c2cc(C(=O)NCCc3ccccc3)no2)c1,11.9
18,CCc1noc(C)c1C(=O)NC1CCCc2c1cnn2-c1cc(C)cc(C)c1 (stereo not shown),7.45
19,O=C(CCCCCNc1nc(=S)[nH]c2ccccc12)NCCc1ccccc1,-4.67
20,CC(C)c1ccc(NC(=O)c2ccccc2NC(=O)C2CC=CCC2C(=O)O)cc1 (stereo not shown),0.664
21,C=CCN1C(=NC(=O)COc2ccc(Cl)cc2)SC2CS(=O)(=O)CC21 (stereo not shown),8.39
22,CC(C)CCNC(=O)CCn1c(=S)oc2ccccc21,-7.74

row,SMILES,"hERG current change (%, negative = inhibition) at 10uM [%]"
1,COC(=O)Cc1cc(=O)[nH]c(/N=C(\N)Nc2ccc(C(C)C)cc2)n1,-2.47
2,CC(C)Oc1ccc(CNC2CCOC(C)(C)C2)cc1 (stereo not shown),18
3,CCOc1ccccc1N(C(=O)CNC(=O)c1ccco1)C(C(=O)NC1CCCC1)c1ccncc1 (stereo not shown),5.91
4,Cc1ccc(CNC(=O)Cc2ccc(NC3=NC4CS(=O)(=O)CC4S3)cc2)cc1 (stereo not shown),12
5,COc1ccc(C2CC(c3cccs3)=NN2C(=O)CCC(=O)O)cc1OC (stereo not shown),6.38
6,C=CCOC(=O)C1=C[C@@H](c2ccc(C(F)(F)F)cc2)C[C@@H](OCCCCO)O1,-33.2
7,Cc1ccc(S(=O)(=O)N/N=C\c2ccccc2OCc2ccccc2)cc1,6.22
8,O=C/C=C/c1c(-c2ccccc2)cc2oc3ccccc3cc1-2,13.2
9,CC(C)(C)NC(=O)Nc1ccc2nccnc2c1,-2.34
10,NC(=O)[C@@H]1CCCN1Cc1nc(Cc2cccc(C(F)(F)F)c2)no1,8.45
11,CCOc1ccc2nc(N/C(N)=N/C(=S)Nc3ccc(C)c(C)c3)nc(C)c2c1,-1.22
12,Cc1ccc(S(=O)(=O)N2CCC(C(=O)NCCc3ccccc3)CC2)cc1,-0.42
13,CC(C)c1ccc(Nc2cnn(C34CC5CC(CC(CC(=O)O)(C5)C3)C4)c(=O)c2Cl)cc1,-5.59
14,N#CCSc1nnc(CNc2ccc(F)cc2)o1,3.67
15,Cn1c2ccccc2c(=O)c2ccc(C#CC3(N)CCCCC3)cc21,-12.3
16,CCn1c(-c2nn(-c3ccccc3)ccc2=O)n[nH]c1=S,13.8
17,Cc1noc(C)c1CSc1ccccc1C(=O)N1CCN(c2ccccc2)CC1,-39.6
18,O=C(COC(=O)Cc1ccccc1)Nc1nnc(-c2ccccc2)o1,-16.8
19,CCn1nc(NC(C)=O)c2cc3ccc(C)cc3nc21,4.73
20,COc1ccccc1-c1nc(N)n[nH]1,14.4
21,COc1ccc(CCC(=O)N/N=C/c2ccc3c(c2)OCO3)cc1,-5.24
22,CC(=O)Nc1ccc(OC(=O)c2cccnc2)cc1,13.3

row,SMILES,"hERG current change (%, negative = inhibition) at 10uM [%]"
1,CSc1ccc(C(=O)N2CCC(n3nccc3NC(=O)C3CC3)CC2)cc1,-46.6
2,CCOc1ccc(OCc2ccc(C(=O)OCc3ccccn3)o2)cc1,-17
3,CCN1CCN(C(=O)c2ccc(-c3nc4ccccc4s3)s2)CC1,-26
4,COc1cccc(NC(=O)COC(=O)c2c3c(nc4ccccc24)CCC(C)C3)c1 (stereo not shown),-17.1
5,O=C(COC(=O)C(c1ccccc1)c1ccccc1)NCc1ccco1,-45.7
6,CCN1CCN(CC(=O)Nc2ccc(C(C)=O)cc2)CC1.Cl,-8.61
7,CN1CCC2(CC1)N=C(c1ccc(F)cc1)C(=S)N2C(=O)c1ccccc1,-6.2
8,CN(C)C(CNC(=O)c1cc(S(=O)(=O)N(C)Cc2ccccc2)ccc1Cl)c1ccco1 (stereo not shown),-24.8
9,Cc1cccc(C)c1NC(=O)COC(=O)CNC(=O)C1CCCCC1,16.6
10,Cc1cc(C)n(C(=O)c2ccc(C)c(S(=O)(=O)N3CCCCC3)c2)n1,-9.66
11,C/C(=N\NC(=O)c1cccc(S(=O)(=O)N2CCCC2)c1)c1ccc(OCC(=O)N(C)C)cc1,-10.3
12,CCOC(=O)c1ccc2[nH]cc(C(C)=O)c(=O)c2c1,0.366
13,CN1CCN(CC(=O)Nc2cccc(S(=O)(=O)N(C)c3ccccc3)c2)CC1,-25.6
14,CC(=O)c1sc(NC(=O)Cc2c(F)cccc2Cl)nc1C,-14.2
15,COc1ccc(N2C(=O)CC(N3CCC(c4nc5ccccc5[nH]4)CC3)C2=O)cc1 (stereo not shown),-15.6
16,CC1=C(C)CC(C(=O)NCc2ccccn2)C(C(=O)O)C1 (stereo not shown),12.5
17,CCCCn1c(N)c(NCc2ccccc2)c(=O)[nH]c1=O,-2.17
18,COc1cccc(N2CCN(C(=O)c3cccc(N4C(=O)NC5CC4(C)Oc4c(OC)cccc45)c3)CC2)c1 (stereo not shown),22.9
19,CC(=O)Oc1ccc2c3c(c(=O)oc2c1C)CCCC3,13.3
20,CN(C)CCOC(=O)C12CC3CC(C1)CC(C(=O)OCCN(C)C)(C3)C2.Cl,16.5
21,CC1Cc2nc(SCC(=O)Nc3ccc4c(c3)OCCO4)n(C)c(=O)c2S1 (stereo not shown),-9.87
22,COc1cccc(/C=C2/SC(=S)N(CC(=O)NC3C=CS(=O)(=O)C3)C2=O)c1 (stereo not shown),24.1
